{"source": "paper PMC7819943", "about": "“Rice protein-binding microarrays: a tool to detect cis-acting elements near promoter regions in rice”", "note": "This is one part of the list."}
{"biological_target": "T1, OsWOX13 (Oryza sativa, UniProt Q5QMM3 1-267)", "T1 sequence": "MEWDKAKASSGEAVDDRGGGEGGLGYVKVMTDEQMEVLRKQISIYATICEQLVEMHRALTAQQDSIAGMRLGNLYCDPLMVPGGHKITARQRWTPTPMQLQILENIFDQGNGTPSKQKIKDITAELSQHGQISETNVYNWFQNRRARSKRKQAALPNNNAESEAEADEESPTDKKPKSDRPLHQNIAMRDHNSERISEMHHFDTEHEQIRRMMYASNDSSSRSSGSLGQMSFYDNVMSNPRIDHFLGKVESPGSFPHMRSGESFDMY", "experiment": "protein-binding microarray (RPBM); PBS, 2% BSA, 51.3 ng/ul salmon testes DNA, 50 uM zinc acetate, 200 nM TF, 25 C, 1 h; high values mean tight binding", "conditions": "protein: recombinant; tags: N-terminal polyhistidine and DsRed monomer fusion (pET32a); label: CyDye5-dUTP incorporated in the synthesized complementary strand; 3' TTTTT single-stranded linker to array surface; dsDNA, one strand shown", "summary_of_the_method": "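Polyhistidine-tagged DsRed fusions of transcription factors, joined at the N-terminus, were expressed in E. coli BL21-CodonPlus and isolated on Ni–NTA. They were incubated at 200 nM for 1 h at 25 °C on a custom Agilent array, double-stranded and BSA-blocked, in PBS with 2% BSA, salmon testes DNA and 50 µM zinc acetate. The binding signal is per-feature fluorescence intensity (arbitrary units) read on an Axon 4000B scanner after washing.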"}
{"sequence": "AGTTTAAATTATGGCAACAACTATAATAATCGAAGAGACACGGAGTCACCTAGTGCAG", "binding signal": "4170 fluorescence intensity (a.u.)"}
{"sequence": "GTTAATGACAGCATACCCATTCTTATTCGTTGTTATAATTCGGAGTCACCTAGTGCAG", "binding signal": "6000 fluorescence intensity (a.u.)"}
{"sequence": "CTATGCAAACTGTGCCAGATTGGTTTGTTCATTATGGGCCCGGAGTCACCTAGTGCAG", "binding signal": "3840 fluorescence intensity (a.u.)"}
{"sequence": "GTACAATAATTAAAACTTAATTAATTGGCTTTCTCGTTTTCGGAGTCACCTAGTGCAG", "binding signal": "32300 fluorescence intensity (a.u.)"}
{"sequence": "TGCGGATTGGTGGTGTGGGTTTGGACAGGGAATCGCGGGCCGGAGTCACCTAGTGCAG", "binding signal": "3550 fluorescence intensity (a.u.)"}
{"sequence": "TGAACTTAACATGATTGATGACTTATTTGGATGATTCACACGGAGTCACCTAGTGCAG", "binding signal": "42800 fluorescence intensity (a.u.)"}
{"sequence": "CTGTTTTCTTTTGACTGTTTTGATTAGCATTATATCAGATCGGAGTCACCTAGTGCAG", "binding signal": "11700 fluorescence intensity (a.u.)"}
{"sequence": "ATGATTGTACTACTACTACCTGAATCTTGGAGTAGAGTTACGGAGTCACCTAGTGCAG", "binding signal": "10700 fluorescence intensity (a.u.)"}
{"sequence": "TCATAATTGACTTTAAACTGCTAAATAGAATAGGTATTTCCGGAGTCACCTAGTGCAG", "binding signal": "35600 fluorescence intensity (a.u.)"}
{"sequence": "CTATAATTAAGGATATACATCATGTACTAACCTGACTAAACGGAGTCACCTAGTGCAG", "binding signal": "21400 fluorescence intensity (a.u.)"}
{"sequence": "GATCTAATTTGAAATGTGATAAATTGTTTTCAATAAATGGCGGAGTCACCTAGTGCAG", "binding signal": "27700 fluorescence intensity (a.u.)"}
{"sequence": "AATAATTAGGCTGTGTTTAGTTCAGCGCAAAGTTTGGATTCGGAGTCACCTAGTGCAG", "binding signal": "18800 fluorescence intensity (a.u.)"}
{"sequence": "ATCTATAGTCAATTTAATATCCAATTCATACAATAGTTACCGGAGTCACCTAGTGCAG", "binding signal": "3690 fluorescence intensity (a.u.)"}
{"sequence": "CTCTTAAATTACTTATCCAAATCATGATCTGATTGCACCACGGAGTCACCTAGTGCAG", "binding signal": "21100 fluorescence intensity (a.u.)"}
{"sequence": "TAAAATGACAGATTGACAGTGATGGTTAAGTCACCATCGACGGAGTCACCTAGTGCAG", "binding signal": "46400 fluorescence intensity (a.u.)"}
{"sequence": "GCATCATGATTCCGATAATTGCATTCAGTGTAGTAGTATCCGGAGTCACCTAGTGCAG", "binding signal": "22300 fluorescence intensity (a.u.)"}
{"sequence": "AGTAATTATTAGCATAATTATTTGTCTCCATTTCTTTCCTCGGAGTCACCTAGTGCAG", "binding signal": "47400 fluorescence intensity (a.u.)"}
{"sequence": "AATCTGACTGGTACACCATAAACAGTTAATGCGTAATAATCGGAGTCACCTAGTGCAG", "binding signal": "7590 fluorescence intensity (a.u.)"}
{"sequence": "CGTTGATAAAATGTAATCTCCCTTTACACCAGGTTTATACCGGAGTCACCTAGTGCAG", "binding signal": "5720 fluorescence intensity (a.u.)"}
{"sequence": "AAAAGGAATTGAAATTTGAATGGTTGAGACCCGGCTTTACCGGAGTCACCTAGTGCAG", "binding signal": "5850 fluorescence intensity (a.u.)"}
{"sequence": "GTAAATTAGTACACGGCAATGTAGTATAAGTTGTAATAGGCGGAGTCACCTAGTGCAG", "binding signal": "21500 fluorescence intensity (a.u.)"}
{"sequence": "ACGGCTCCTACTCCAATCAATCACAACCAACGAATTAGAACGGAGTCACCTAGTGCAG", "binding signal": "11800 fluorescence intensity (a.u.)"}
{"sequence": "AGGCTCCAATCAATTGCCGGCAGCAAGCCACCATGCCCCACGGAGTCACCTAGTGCAG", "binding signal": "10100 fluorescence intensity (a.u.)"}
